We go through 56 molecules from PubChem BioAssay AID360 (National Center for Advancing Translational Sciences (NCATS), 2006).

The campaign covered roughly 48,000 compounds. About 550 (1.1%) were called active. Inconclusive results (about 4%) are left out. No stated cut-off is given here; in the data, active means potency below about 15 µM; inconclusive means mostly about 16 µM to 33 µM; inactive means weaker than that. The list shows a part of the results.
Potency means the concentration at half of the fitted maximal effect.

For the assay, the target named is Lysosomal acid glucosylceramidase (Homo sapiens) (UniProt P04062). The assay can be described thus: Glucocerebrosidase.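 Further: the screen sought inhibitors.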 To be noted: purified enzyme, resorufin glucoside fluorescence (screen aimed at inhibitors), 20 min. The gist of the method: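 Wild-type enzyme at 0.2 nM final in 50mM citric acid/KH2PO4, 10mM sodium taurocholate, 0.01% tween-20, pH 5.9, with resorufin beta-D-glucopyranoside at 30 uM final. Compounds titrated, 20 min at RT, red fluorescence read; AC50 from titration.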
UniProt P04062, sequence (P04062 whole entry, looked up): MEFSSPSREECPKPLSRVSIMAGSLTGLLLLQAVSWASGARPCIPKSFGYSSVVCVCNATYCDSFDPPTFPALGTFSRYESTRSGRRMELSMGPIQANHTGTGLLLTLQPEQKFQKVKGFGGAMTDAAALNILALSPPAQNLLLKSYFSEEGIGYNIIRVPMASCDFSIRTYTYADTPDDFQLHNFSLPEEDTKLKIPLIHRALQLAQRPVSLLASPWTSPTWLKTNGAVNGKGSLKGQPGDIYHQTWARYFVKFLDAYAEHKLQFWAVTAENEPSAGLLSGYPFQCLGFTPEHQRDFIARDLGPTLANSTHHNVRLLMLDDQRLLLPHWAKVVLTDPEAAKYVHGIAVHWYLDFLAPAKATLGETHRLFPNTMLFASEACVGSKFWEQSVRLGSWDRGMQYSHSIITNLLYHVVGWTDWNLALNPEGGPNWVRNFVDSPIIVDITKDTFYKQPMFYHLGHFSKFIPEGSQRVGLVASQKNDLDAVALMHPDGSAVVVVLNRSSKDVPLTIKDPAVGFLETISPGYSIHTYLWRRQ
As to `Fc1ccc2nc(-c3ccccc3)nc(SCc3nnc(-c4ccccc4)o3)c2c1`, the Potency is inactive: > 76.9 µM. Next, `N#CCCNC(=O)CCN1CCOCC1`: inactive: > 76.9 µM.

Turning to `Oc1c(CN2CCOCC2)cc(-c2ccccc2)cc1CN1CCOCC1`, the Potency was inactive: > 76.9 µM. Next, `COc1ccc(OC)c(NC(=O)c2cc3n(n2)C(C(F)(F)F)CC(c2ccc4c(c2)OCO4)N3)c1` (stereo unspecified): inactive: > 76.9 µM. The result for `Cc1ccc(S(=O)(=O)N2CCN(C(=O)COc3ccc(-c4nnco4)cc3)CC2)cc1` reads inactive: > 76.9 µM; that for `Cc1nnc(N(Cc2ccco2)C(=O)c2cccc(C#N)c2)s1`, inactive: > 76.9 µM.

On to `c1ccc(Cn2ccnc2SCc2nnc(-c3ccccc3)o2)cc1`, for which the Potency is inactive: > 76.9 µM. The result for `O=S(=O)(NC1CCCC1)c1cccc(S(=O)(=O)N2CCC(n3nnc4ccccc43)CC2)c1` reads “inactive”; that for `Cc1ccc2nsnc2c1S(=O)(=O)N(Cc1cc2cccc(C)c2[nH]c1=O)CC1CCCO1` (stereo unspecified), inactive: > 76.9 µM; that for `CCN(CC)CCNC(=O)CS(=O)Cc1nc(-c2ccc(C)cc2)oc1C` (stereo unspecified), inactive: > 76.9 µM. As for `CC(C)NC(=O)CSc1nncn1-c1ccccc1`, the Potency was inactive: > 76.9 µM.

Turning to `CCOC(=O)N1CCN(Cc2oc(CO)cc(=O)c2O)CC1`, the Potency was inactive: > 76.9 µM. Turning to `CCOc1ccc(C2C=C(c3ccc(F)cc3)Nc3ncnn32)cc1` (stereo unspecified), the Potency is inactive: > 76.9 µM. In the case of `Cc1ccc(NC(=O)N(C2=NCC(C)S2)c2ccccc2)cc1` (stereo unspecified), the Potency was inactive: > 76.9 µM.

On to `COc1ccccc1Cn1nnc2c(=O)[nH]c(C3CCN(C(=O)c4ccc(C)cc4)CC3)nc21`, for which the Potency is inactive: > 76.9 µM.

Turning to `CCOC(=O)Cn1c(=N)n(Cc2ccccc2F)c2ccccc21`, the Potency was inactive: > 76.9 µM.

Turning to `Cc1ccc(-c2cc(C(=O)Nc3cc(C)ccc3C)[nH]n2)c(O)c1`, the Potency was inactive: > 76.9 µM. In the case of `CCOC(=O)c1ccc(NC(=O)CSc2nnc(Cc3cccs3)n2C)cc1`, the Potency was inactive: > 76.9 µM. As for `N#Cc1nc(COc2ccc(F)cc2)oc1N1CCCC1`, the Potency was inactive: > 76.9 µM. For `Cc1ccc(-c2cn3cccnc3n2)cc1NC(=O)c1c(-c2ccccc2Cl)noc1C`, the Potency result is “inactive”. Next, `CC1(C)CC(=O)c2sc(NS(=O)(=O)Cc3ccccc3)nc2C1`: inactive: > 76.9 µM.

On to `N#Cc1nc(-c2cccs2)oc1N1CCN(Cc2ccccc2)CC1`, for which the Potency was inactive: > 76.9 µM. As to `CCCCCOC(=O)C1=C(C)N(C)C(=O)NC1c1cc(Br)c(O)c(OC)c1` (stereo unspecified), the Potency is inactive: > 76.9 µM. Next, `N#CCCN1CCN(C(=S)c2ccc(-c3ccc(Cl)c(Cl)c3)o2)CC1`: inactive: > 76.9 µM; `NC1=NCc2ccccc21`: inactive: > 76.9 µM; `CC(=O)Nc1ccc(OCC(O)CN2CCN(c3cccc(Cl)c3)CC2)cc1` (stereo unspecified): inactive: > 76.9 µM.

Regarding `O=C(COc1ccccc1)N1CCc2ccccc2C1`, the Potency was inactive: > 76.9 µM.

On to `COc1ccccc1N1CCN(Cc2ccco2)CC1`, for which the Potency was inactive: > 76.9 µM. As to `CC1CCCN(S(=O)(=O)c2ccc(S(=O)(=O)N3CCCN(Cc4ccccc4)C3)cc2)C1` (stereo unspecified), the Potency was inactive: > 76.9 µM. On to `CCn1c(=O)cc(OCC(=O)NCCCN2CCN(c3cccc(Cl)c3)CC2)c2ccccc21`, for which the Potency was inactive: > 76.9 µM. Next, `Cc1cc(C)cc(N(CC(=O)NCc2cccnc2)S(C)(=O)=O)c1`: inactive: > 76.9 µM.

As for `CN(C)c1oc(-c2ccc(OCc3ccc(Cl)cc3)cc2)nc1C#N`, the Potency is inactive: > 76.9 µM. As to `N#Cc1c(-c2ccco2)nc(NCC2CCCO2)[nH]c1=O` (stereo unspecified), the Potency is inactive: > 76.9 µM. The result for `CC(C)Sc1nnc(Nc2ccccc2)s1` reads inactive: > 76.9 µM; that for `O=C(COC(=O)CCN1C(=O)c2ccccc2C1=O)Nc1ccc(S(=O)(=O)N2CCCC2)cc1`, inactive: > 76.9 µM; that for `CCOc1ccc(C(=O)OCn2nnc3ccccc3c2=O)cc1OC`, inactive: > 76.9 µM. The result for `CC1CCC(C(=O)NC(C(=O)NCCCN2CCOCC2)C(C)C)CC1` (stereo unspecified) reads inactive: > 76.9 µM; that for `CN1CCN(C(c2cccc(C(F)(F)F)c2)c2nnnn2Cc2ccccc2)CC1` (stereo unspecified), “inactive”; that for `O=C(NCc1cccnc1)c1ccc2c(=O)n(CCCN3CCCC3=O)c(=S)[nH]c2c1`, inactive: > 76.9 µM. On to `COCC(=O)Nc1ccc(-c2cn3cccnc3n2)cc1`, for which the Potency is inactive: > 76.9 µM. As for `O=C(NCCN1CCOCC1)c1nn2c(c1Cl)NC(c1ccccc1)CC2C(F)(F)F` (stereo unspecified), the Potency result is “inactive”. The result for `O=C1CC(C(=O)Nc2ccc(C(=O)N3CCOCC3)cc2)C2(CCCCC2)O1` (stereo unspecified) reads inactive: > 76.9 µM; that for `COc1ccc(C(=O)N2CC=C(c3ccccc3)CC2)cc1S(=O)(=O)N1CCOCC1`, inactive: > 76.9 µM. The result for `COC(=O)c1[nH]c2ccc(C)cc2c1NC(=O)CN1CCN(c2ccc(F)cc2)CC1` reads inactive: > 76.9 µM. Consider `COc1ccccc1-c1noc(CCC(=O)Nc2cccc(C(F)(F)F)c2)n1`, for which the Potency was inactive: > 76.9 µM.

As to `Cn1c(=O)c2c(nc(CN3CCc4ccccc4C3)n2CC(=O)c2ccccc2)n(C)c1=O`, the Potency is inactive: > 76.9 µM. Next, `COc1ccc(CC(=O)Nc2ccc(-c3noc(-c4cc(OC)c(OC)c(OC)c4)n3)cc2)cc1`: inactive: > 76.9 µM. For `Cc1ccc(-c2nc(CSCC(=O)NCc3cccnc3)c(C)o2)cc1`, the Potency is inactive: > 76.9 µM.

For the molecule `NC(=O)CCCCC(=O)OCCCc1cccs1`, the Potency was inactive: > 76.9 µM. Take `Cc1nnc(Nc2ccc(C(=O)N3CCOCC3)cc2)c2ccccc12`: the Potency was inactive: > 76.9 µM. Take `Cc1occc1C(=O)NC(C)C(C)(C)C` (stereo unspecified): the Potency is inactive: > 76.9 µM. Next, `CCC(Sc1nc(C)cc(=O)[nH]1)C(=O)Nc1nnc(C)s1` (stereo unspecified): inactive: > 76.9 µM; `CCn1c(=O)c(C(=O)CN2CCCc3ccccc32)c(N)n(Cc2ccccc2)c1=O`: inactive: > 76.9 µM. Consider `Cc1c(Cl)cccc1NC(=O)CCN1CCCC(C)C1` (stereo unspecified), for which the Potency was inactive: > 76.9 µM. Next, `COc1ccc(Cl)cc1NC(=O)CN1CCC(n2nnc3cc(F)ccc32)CC1`: inactive: > 76.9 µM; `Cc1cc(N2CCN(c3nc(N4CCOCC4)nc4ccccc34)CC2)c2ccccc2n1`: inactive: > 76.9 µM.
